In PMC10668032:
The other results are listed elsewhere or left out. At the low end of the ranking, values are background and their order means little.

Target: SIX1-Q177R homeodomain (UniProt Q15475)
Assay: universal protein binding microarray
Conditions: Universal all-10-mer PBM (8x60K, AMADID 030236), 300 nM GST-tagged protein, Alexa Fluor 488 anti-GST; buffer, salt, pH and temperature not stated; high values mean tight binding; most listed sequences are background and not binding sites; double strand, one strand shown

Sequence	binding signal
CGCCAAGA	-0.0727 E-score
GACTTTGA	-0.162 E-score
CTTTACGC	-0.0824 E-score
ATGGGGCG	0.00015 E-score
AGACTATG	-0.0941 E-score
CCCGCACC	0.197 E-score
AGTAGTAA	-0.0536 E-score
GATTATGA	-0.117 E-score
CGACACCG	0.491 E-score
AAACCCAG	0.219 E-score
CTTACTCC	0.194 E-score
CTAAGTTA	-0.164 E-score
CCGTATAA	0.0201 E-score
CAACAGTG	0.106 E-score
TAGCACGA	0.0446 E-score
AATTTCGC	-0.195 E-score
CGTTGAGC	0.025 E-score
AATGCTAA	-0.17 E-score
GAAGTACA	0.149 E-score
AGCCCCAG	-0.065 E-score
GATCAGTA	0.0077 E-score
CCTAAGCA	0.0372 E-score

Sequence	binding signal
AGGGAACC	-0.0166 E-score
AAAGATCA	-0.157 E-score
AGAAGGAA	-0.158 E-score
AAATGGCC	-0.238 E-score
CTAACTAG	0.0599 E-score
TATAGCGA	-0.156 E-score
ACTGATGC	-0.0565 E-score
CGCGGCAG	-0.0453 E-score
AACTTAAT	-0.121 E-score
AATGCTAG	-0.0888 E-score
ATTACGTA	-0.148 E-score
AATTATAA	-0.307 E-score
CACCTCTG	0.287 E-score
ACCGGCAT	-0.126 E-score
AAGCCTTC	-0.106 E-score
GCAACGTA	-0.299 E-score
CAAGATCC	-0.00191 E-score
AGGCTGGC	-0.154 E-score
GTCGCGCA	-0.0878 E-score
ATTTATGA	-0.207 E-score
TGAAGAAA	-0.24 E-score
CGCCTGTC	-0.203 E-score

Sequence	binding signal
AAACTGTC	-0.194 E-score
GACCTGAC	0.0563 E-score
GCTACTGA	-0.0122 E-score
CTATAGTC	-0.168 E-score
CCGAGCAC	0.178 E-score
CCCCACGG	0.137 E-score
ACAACCAA	-0.104 E-score
TTAGAAAA	-0.178 E-score
AACAGAAT	-0.182 E-score
ATTTGTTC	-0.0296 E-score
AGTTCGCA	-0.257 E-score
ACTAAGGA	-0.0102 E-score
TATCCAAA	0.0593 E-score
ATTGGAGG	-0.165 E-score
AGCCGGAG	0.115 E-score
GGCACACA	0.179 E-score
CGCTCTTC	-0.154 E-score
AAGAGAAT	-0.4 E-score
ATCGCATA	-0.0951 E-score
AACCAGCC	-0.234 E-score
GAGTAAAC	-0.00017 E-score
CGACTTTC	-0.232 E-score

Sequence	binding signal
GTTACGCA	0.141 E-score
AGCGGGGA	0.139 E-score
CAATTTAA	-0.0626 E-score
AGTGCCTC	0.0084 E-score
TGCATAAA	0.0382 E-score
CCACATCA	-0.0761 E-score
CCCCCAAG	0.227 E-score
CATGATCA	-0.154 E-score
GGTTGTTA	-0.0393 E-score
ACATGACT	-0.093 E-score
ACCTAAGA	-0.0597 E-score
GTAAGATA	0.0906 E-score
ACACAGCA	0.11 E-score
CCTAGTAA	0.0864 E-score
CGCATAGC	-0.0178 E-score
GCTCTGAA	-0.149 E-score
ACCTCCAT	-0.0105 E-score
CGGACGCA	0.00688 E-score
ACACGAGC	0.329 E-score
GCACACTA	0.2 E-score
